Measurements published in the supplement of paper PMC3334620.
In all, about 33,000 sequences were measured (“E-score (-0.5 to 0.5)”: median about -0.036, highest 2% from about 0.37 on). The list shows a part of the results.

These sequences were tested against T1, Yer064c (UniProt P40041) (assay: PBM E-score (8-mer binding enrichment) (E-score (-0.5 to 0.5)); higher = stronger / more preferred TF binding; most listed sequences are background and not binding sites). Conditions: protein concentration: 200 nM; construct: GST-full length.
T1 sequence: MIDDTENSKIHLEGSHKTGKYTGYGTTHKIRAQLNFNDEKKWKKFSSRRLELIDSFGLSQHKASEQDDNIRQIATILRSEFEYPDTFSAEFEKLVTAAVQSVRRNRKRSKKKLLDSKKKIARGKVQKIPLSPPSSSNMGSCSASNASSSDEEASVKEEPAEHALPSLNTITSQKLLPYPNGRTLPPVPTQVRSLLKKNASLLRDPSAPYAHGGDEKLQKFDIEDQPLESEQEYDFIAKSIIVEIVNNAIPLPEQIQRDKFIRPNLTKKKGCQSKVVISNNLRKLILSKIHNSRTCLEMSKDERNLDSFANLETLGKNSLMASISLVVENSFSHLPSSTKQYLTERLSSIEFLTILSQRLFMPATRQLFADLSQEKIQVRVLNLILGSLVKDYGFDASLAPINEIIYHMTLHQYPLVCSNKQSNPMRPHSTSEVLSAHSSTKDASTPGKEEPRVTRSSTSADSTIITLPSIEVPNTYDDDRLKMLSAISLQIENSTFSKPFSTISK
Outline: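 The E-score, a modified Wilcoxon-Mann-Whitney statistic, was computed by the Universal PBM Analysis Suite for every ungapped eight-base word pooled with its reverse complement. Scans behind it were normalised with masliner after bound GST-tagged yeast transcription factors were detected with fluorescent anti-GST. The proteins, at about 100-200 nM, had been applied to universal all-10-mer Agilent arrays made double-stranded by primer extension.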

Row | Sequence | PBM E-score
1 | GCGTGTAA | 0.044
2 | CGCCCTAC | -0.229
3 | AACAACTC | -0.182
4 | ACTAATTG | 0.161
5 | CCCATTAG | -0.0867
6 | ATATGAGA | 0.0697
7 | GAACGTGC | -0.327
8 | ACGTCGAG | -0.101
9 | GAGAGTGC | -0.283
10 | CGTGCAAA | -0.103
11 | GGCAAACA | -0.233
12 | CCAGATCC | -0.372
13 | AACCGACT | 0.206
14 | CGACTGCA | 0.253
15 | AACAAACC | 0.0357
16 | AGTGACTA | 0.469
17 | ACAGATGC | -0.101
18 | ACCTATAG | -0.163
19 | CTCAAGAC | 0.118
20 | GCAAAAAC | -0.0918
21 | AGGCCATG | -0.0831
22 | CCTCATAC | -0.153
23 | TCAGTAAA | 0.186
24 | CTCACCCC | -0.00751
25 | CGTCCCAA | -0.00756

Row | Sequence | PBM E-score
26 | CGCCGCGA | 0.0909
27 | GTTAACTA | 0.153
28 | CATCTCCC | -0.0994
29 | ATGAAAAT | 0.119
30 | ATGGCCAC | -0.244
31 | TAAGAGGA | 0.0965
32 | AAAATTAC | 0.105
33 | CAGTTCAG | 0.0732
34 | AAGGCGAG | -0.186
35 | GTTGAAAA | 0.0339
36 | CCGTCTAA | -0.0579
37 | CTGTAAGA | -0.097
38 | AACGGACT | 0.113
39 | ACGGCACA | -0.0583
40 | GTTTATTA | 0.148
41 | ACATCCAA | -0.107
42 | GTCCTCCA | -0.006
43 | TAATAGTA | 0.104
44 | ATCGGAAG | -0.0489
45 | CCTAGGAG | 0.00138
46 | GGGCGGAA | -0.148
47 | CCGATCAA | -0.0705
48 | GGATGAAC | 0.00015
49 | GTCGGCCA | -0.0323
50 | CCCTAAAA | -0.234

Row | Sequence | PBM E-score
51 | ACCAAGCG | -0.321
52 | TACATGTA | -0.126
53 | CCCCCCAC | -0.296
54 | CCAGACTA | 0.208
55 | CCAATTAG | 0.0675
56 | ATGGGACC | -0.118
57 | CTCGGGAA | 0.0998
58 | CTAGCGCA | -0.0675
59 | AGTAACAC | 0.19
60 | CGCACAAG | 0.0388
61 | CAGAGCTA | -0.157
62 | AAAAGATT | 0.122
63 | CACATTTC | -0.113
64 | CAATACAA | -0.0296
65 | GGTGCCTA | -0.293
66 | GAGGAGAA | -0.214
67 | CATAACTA | 0.0523
68 | CAGGGAGC | -0.0512
69 | CTCAGTGC | 0.0043
70 | CTTAGCCA | 0.289
71 | CGGGTACG | -0.182
72 | ACGAAGAG | 0.118
73 | AGAGCTAA | -0.0864
74 | AAGGAGAA | -0.09
75 | ATACTCTG | 0.0259

Row | Sequence | PBM E-score
76 | ATAGTTGA | 0.126
77 | CCGGATGC | -0.224
78 | ACCCAACA | -0.144
79 | CTTGATTC | 0.324
80 | ATCTAATC | 0.195
81 | CTAGTAAG | 0.0365
82 | ACAGAAGG | -0.0367
83 | CTTGAGTA | 0.233
84 | ATTTATAA | 0.255
85 | ACGCTACT | -0.181
86 | AGATCATC | 0.0903
87 | CAGGCAGC | -0.235
88 | ACAGCCTG | -0.0639
89 | CGGCACAC | -0.0912
90 | CATGATGG | 0.0468
91 | AGGTAGCC | -0.0747
92 | GAAGCAGC | -0.24
93 | CATATTGC | 0.00639
94 | CATCGGCC | -0.0369
95 | ATTGTTGA | 0.0448
96 | AAGTAGTG | -0.157
97 | ATAACACA | 0.0301
98 | ATGCAAGC | -0.174
99 | AGTTAGAC | 0.177
100 | ATAGATCA | 0.0787

Row | Sequence | PBM E-score
101 | GGTAGCAA | -0.309
102 | TATCTAGA | 0.228
103 | AGTCAGAA | 0.434
104 | CTGGCAAC | -0.279
105 | AAGTAATG | -0.00135
106 | CGGACGGC | -0.233
107 | ATGTGGCA | -0.0425
108 | AGTTCGCC | -0.0208
109 | AATGCTAG | -0.164
110 | AAGCGATA | -0.0238
111 | CGGAGATC | -0.102
112 | CAACTCTA | -0.131
113 | ACCTTATG | 0.0672
114 | TATGATGA | 0.338
115 | GTCAATAA | 0.16
116 | CGCTACAA | -0.05
117 | AAGTTTTG | 0.0171
118 | CGAAACGA | -0.131
119 | GCGGGCGA | -0.139
120 | ATAGATGC | -0.182
121 | AGATCTAC | -0.135
122 | CAGTCGGA | 0.118
123 | CTACTAAA | 0.00127
124 | CTTGGTTA | 0.122
125 | CTGAGTGC | -0.0835

Row | Sequence | PBM E-score
126 | GACCCGTA | -0.118
127 | CCGGGCCA | -0.254
128 | GTAAAGCA | 0.025
129 | ATAAATAC | -0.0305
130 | ACGCGTTC | -0.0581
131 | AAATAATC | 0.252
132 | CGACTCCG | 0.332
133 | TGGGCAAA | -0.208
134 | CTAAAATA | 0.0736
135 | AAAGCGCA | -0.244
136 | GAGCCATC | 0.342
137 | CCCTCCCG | -0.282
138 | CCACGAAA | -0.12
139 | TTACTCAA | 0.272
140 | AACTCCCG | -0.237
141 | ATGAAAGA | 0.125
142 | CATGCCAA | -0.0235
143 | ACTCGGCC | 0.0413
144 | CTTCCCCC | -0.281
145 | ATGCATAC | -0.244
146 | AGCCATAG | 0.199
147 | AGTGGTGA | -0.0291
148 | ACAAAACA | 0.0934
149 | CCGGACGC | -0.192
150 | GTTATAAA | 0.13

Row | Sequence | PBM E-score
151 | CTCACAGA | 0.166
152 | ATGTAGTG | 0.0118
153 | AAGACTTG | 0.165
154 | GTTAGTAA | 0.23
155 | AGTTGCAG | -0.112
156 | CTGCGCCC | -0.208
157 | ACTTGATA | 0.104
158 | CCTTTACC | -0.149
159 | CGATTGCG | -0.0158
160 | AAGCTCCC | -0.327
161 | GGTTATGA | 0.164
162 | GGTGATCA | 0.249
163 | CAGGCTCA | 0.00191
164 | AACCAGTT | 0.0937
165 | AGCGCCGG | -0.0466
166 | GGCTAAGA | 0.0902
167 | TACTGAAA | 0.069
168 | ACGGAGTA | -0.0195
169 | AGACATTG | 0.0501
170 | GCCCCGAC | -0.0848
171 | CGTACACC | -0.204
172 | AAAGGGCT | -0.071
